Source: PubChem BioAssay AID651820 (National Center for Advancing Translational Sciences (NCATS), 2012)
“And” between values parts separate entries of the source, which are not always exact repeats. Equal entries are not always repeated. Out of some 340,000 compounds screened, about 12,000 (3.5%) were called active. The inconclusive results got no clear call from the source; some entries with a clear call stand among them for comparison. Calls come from the whole dose curve; as a rule, active = well fitted inhibition curve with a large enough effect; inconclusive = small, poorly fitted or top-dose-only effect, or another doubt; inactive = no such curve, though single readings can be large or run the other way. Potencies of inconclusive entries are doubtful fits and often do not repeat.

Experiment: qHTS Assay for Inhibitors of Hepatitis C Virus (HCV)
Settings: Huh7.5.1 HCVcc-Cre (HCVcc is cell-culture hepatitis C virus) infection, luciferase reporter, 44 h; series mostly up to 41.8 µM
Description: Hepatitis C virus (HCV) infects about 200 million people in the world. Many infected people progress to chronic liver disease including cirrhosis with a risk of developing liver cancer. To date, there is no effective vaccine for hepatitis C. Current therapy based on interferon is only effective in about half of the patients and is associated with significant adverse effects. The fraction of people with HCV who can complete a successful treatment is estimated to be no more than 10 percent. Recent development of direct-acting antivirals against HCV, such as protease and polymerase inhibitors, is promising but still requires combination with peginterferon and ribavirin for maximal efficacy. In addition, these agents are associated with high rate of resistance and many have significant side effects. Due to the lack of a culture system for infectious HCV, the search for new HCV drugs has been greatly hampered. […] High-throughput screening (HTS) with an infectious HCV system would cover the complete spectrum of potentially druggable targets in all stages of HCV lifecycle, and would have more biological relevance than other cell-based assays. Moreover, targeting several key processes in the viral life cycle may not only increase antiviral efficacy; more importantly, it may also reduce the capacity of the virus to develop resistance to the compound. The goal of this project is to identify novel HCV inhibitors as new therapies for hepatitis C, using a highly sensitive and specific assay platform which is based on a HCV infectious cell culture system established in the laboratory and adapted for high-throughput HCV drug screen. NIH Chemical Genomics Center [NCGC] NIH Molecular Libraries Probe Centers Network [MLPCN] MLPCN Grant: MH095511 Assay Submitter (PI): Jake Liang, NIDDK
The assay will start with plating 1,000 cells/well in 3 µL volume and culture for 4 h. Then 23 nL of compounds from the library collection will be added to each well, followed by adding 2.5 µL of HCVcc-Cre virus (~ 0.5 moi) and further cultured for 44 h before the luciferase assay. A volume of 4.5 µL luciferase substrates will be added to each well and the plates will be incubated at room temperature for 15 min. and then read for 15 sec. for the luciferase activity
Tags give direction and shape of the fitted curve.

| SMILES | Potency |
| --- | --- |
| CCCc1cc(=O)oc2cc(OCC(=O)NC3CCN(Cc4ccccc4)CC3)ccc12 | inconclusive: 12.6 µM [inhibitor, single point] |
| CCN1CCN(c2nnc(-c3ccc(F)cc3)c3ccccc23)CC1 | active: 2.82 µM |
| COc1ccccc1/C=C/C1NC(=O)NC(C)=C1C(=O)OC(C)C (centres undefined) | inconclusive: 5.62 µM [inhibitor, full curve] |
| c1ccc(-c2cc3c(N4CCN(c5ccccc5)CC4)ncnc3s2)cc1 | inconclusive: 11.2 µM [inhibitor, single point] |
| COc1ccc(N2CCN(C(=O)CCS(=O)(=O)c3ccc4c(c3)CCN4C(=O)C3CC3)CC2)cc1 | inconclusive: 22.4 µM [inhibitor, single point] |
| O=C(c1cccc(COc2cccc3ccccc23)c1)N1CCCC1 | inconclusive: 31.6 µM [inhibitor, single point] |
| CC1(C)CN=c2s/c(=C\c3ccc(Cl)cc3)c(=O)n2C1 | inconclusive: 10 µM [inhibitor, partial curve] |
| COc1ccc(NS(=O)(=O)c2cc(NC(=O)c3cnccn3)ccc2N2CCCC2)cc1 | inconclusive: 31.6 µM [inhibitor, single point] |
| COc1ccc(CCN2C(=O)CC(Cc3ccc(Br)cc3)C2=O)cc1OC (centres undefined) | inconclusive: 12.6 µM [inhibitor, single point] |
| COCCn1c(C)cc(/C=N/NC(=O)c2cccnc2)c1C | inactive |
| O=C(CSc1nnc2c(n1)[nH]c1ccccc12)N1CCCCC1 | inconclusive: 25.1 µM [inhibitor, single point] |
| COC(C[C@@H]1O[C@@H]1[C@H](O)[C@@H](C)OCc1ccccc1)OC | inactive |
| Cc1cc([N+](=O)[O-])ccc1Nc1nc2ccccc2n2cnnc12 | inconclusive: 11.2 µM [inhibitor, partial curve] |
| CC(CC(=O)Nc1ccc(Cl)c(S(=O)(=O)N2CCOCC2)c1)c1ccccc1 (centres undefined) | active: 2.51 µM |
| COc1c(/C=N/Nc2nc(N3CCCCC3)nc(N3CCCCC3)n2)cccc1[N+](=O)[O-] | inconclusive: 1.78 µM [inhibitor, partial curve] |
| CCOc1ccc(C(CC(=O)O)NC(=O)C2c3ccccc3Oc3ccccc32)cc1 (centres undefined) | inactive |
| OC1CCN(c2cc(-c3ccccc3)nc3cc(-c4ccc(F)cc4)nn23)CC1 | inactive |
| CC(C)(C)NC(=O)C(c1ccc(O)cc1)N(Cc1ccccc1)C(=O)CCC(=O)Nc1nccs1 (centres undefined) | inactive |
| COc1ccccc1CNC(=O)COC(=O)c1ccccc1SCC(=O)N1CCCC1 | inconclusive: 31.6 µM [inhibitor, single point] |
| Nc1cccc(C#Cc2ccc3c(=O)c4ccccc4oc3c2)c1 | inconclusive: 5.01 µM [inhibitor, full curve] |
| COc1ccc(-c2cc(C(F)(F)F)nc(-n3cc(Cl)cn3)n2)cc1 | inconclusive: 3.55 µM [inhibitor, partial curve] |
| CCOC(=O)c1cc2nc(Nc3ccc(OC)cc3)sc2s1 | inconclusive: 31.6 µM [inhibitor, single point] |
| CCc1ccc(C(C(=O)NC2CCCC2)N(Cc2cccnc2)C(=O)c2csnn2)cc1 (centres undefined) | inactive |

| SMILES | Potency |
| --- | --- |
| CSc1cccc(NC(=O)CSc2ccccc2)c1 | inconclusive: 31.6 µM [inhibitor, single point] |
| O=C(Nc1ccc(Cl)cc1)N1CCC(c2nc(-c3ccccc3Cl)no2)CC1 | active: 7.08 µM |
| N#C/C(=C/c1ccc(-c2ccc(Br)cc2)o1)C(=O)NC1CCCCC1 | active: 14.1 µM |
| Cc1cc2cc(CCNC(=O)c3cccc([N+](=O)[O-])c3)c(=O)[nH]c2cc1C | inconclusive: 14.1 µM [inhibitor, partial curve] |
| CN(CC(=O)Nc1ccc(F)cc1)C(=O)COc1ccc([N+](=O)[O-])cc1Cl | inconclusive: 11.2 µM [inhibitor, partial curve] |
| COC(=O)C1=C(c2cc3ccccc3s2)C[C@@H]2CC[C@H]1N2C(=O)NC(C)C | inactive |
| O=C(COC(=O)CCc1ccccc1)NCc1ccc2c(c1)OCO2 | inactive |
| Cc1cc([N+](=O)[O-])c2[nH]c(C(=O)N/N=C/c3ccccc3C(=O)O)c(-c3ccccc3)c2c1 | inconclusive: 31.6 µM [inhibitor, single point] |
| CCOc1ccc(S(=O)(=O)Nc2ccc3c(c2)n(C)c(=O)n3C)cc1 | inconclusive: 25.1 µM [inhibitor, single point] |
| CCCCNC(=O)CSc1nc2ccccc2c(=O)n1C1CCCC1 | inconclusive: 11.2 µM [inhibitor, single point] |
| Nc1ccc(-c2c3ccc(=O)cc-3oc3cc(O)ccc23)cc1C(=O)O | inactive |
| CCn1nc2cc(C(=O)NCc3cc(C(F)(F)F)cc(C(F)(F)F)c3)ccc2c1OC | inconclusive: 3.16 µM [inhibitor, partial curve] |
| N#CC1=C(N)N2C(=C(C#N)C13CCN(Cc1ccccc1)CC3)Nc1ccccc12 | inactive |
| Cc1cc(C(=O)N2CCCC(N3CCN(c4cccc(C(F)(F)F)c4)CC3)C2)no1 (centres undefined) | inactive |
| O=c1c2cnn(-c3ccccc3)c2ncn1Cc1ccco1 | inconclusive: 31.6 µM [inhibitor, single point] |
| COc1ccc(-n2ccnc2SCC(=O)NO)cc1 | inactive |
| c1ccc2[nH]c(CSc3nnc(-c4ccncc4)o3)nc2c1 | inconclusive: 5.01 µM [inhibitor, single point] |
| COc1cccc(NC(=O)C2CCCC2)c1 | inconclusive: 22.4 µM [inhibitor, partial curve] |
| Cc1ccc(S(=O)(=O)CCC(=O)OCC(=O)N(C)Cc2ccccc2)cc1 | inactive |
| NCc1nc(-c2ccc(Cl)cc2)no1 | inactive |
| CS(=O)(=O)c1ccc(C(=O)OC2CCOC2=O)cc1[N+](=O)[O-] (centres undefined) | inconclusive: 31.6 µM [inhibitor, single point] |
| Cc1nonc1CN(C)C(=O)CC1C(=O)NCCN1Cc1ccccc1C(F)(F)F (centres undefined) | inactive |
| O=C(NCCC1CCCCN1S(=O)(=O)c1cccs1)C(=O)Nc1cccc(F)c1 (centres undefined) | inconclusive: 31.6 µM [inhibitor, single point] |

| SMILES | Potency |
| --- | --- |
| CCC1Oc2ccccc2N(CC(=O)NCCCN2CCN(Cc3ccccc3)CC2)C1=O (centres undefined) | inconclusive: 14.1 µM [inhibitor, partial curve, poor fit] |
| CCOC(=O)C(C)On1c(-c2ccc(Cl)cc2)nc2ccc([N+](=O)[O-])cc21 (centres undefined) | inconclusive: 10 µM [inhibitor, partial curve] |
| CCC(=O)OC1(C)C(=O)C=C2C=C(c3ccc(C#N)cc3)OC=C2C1=O (centres undefined) | inconclusive: 22.4 µM [inhibitor, single point] |
| COc1cc(OC)cc(-c2c(-c3cccs3)c3cc(-c4cnc(OC)nc4)ccc3n2C)c1 | inconclusive: 1.58 µM [inhibitor, full curve, poor fit] |
| Cc1cccc(N2CCN(C(=S)c3ccc(-c4ccccc4[N+](=O)[O-])o3)CC2)c1 | inconclusive: 11.2 µM [inhibitor, partial curve] |
| CCCN(CCC)S(=O)(=O)c1cccc(C(=O)Nc2ccc3c(c2)OCO3)c1 | inconclusive: 22.4 µM [inhibitor, partial curve] |
| COc1ccc(CCn2c(C)cc(C(=O)CCl)c2C)cc1OC | inconclusive: 22.4 µM [inhibitor, single point] |
| CS(=O)(=O)N1CCc2cc(NC(=O)c3ccc(Cl)cc3Cl)ccc21 | inconclusive: 7.94 µM [inhibitor, partial curve] |
| CCOC(=O)N1CCC(NCCNC(=O)c2ccccc2Cl)CC1 | inactive |
| O=C(N/N=C/c1ccc([N+](=O)[O-])o1)c1cc(-c2ccncc2)nc2ccccc12 | active: 10 µM |
| COc1ccc(-c2noc(C3CCCN(C(=O)c4ccc(F)cc4)C3)n2)cc1 (centres undefined) | inconclusive: 10 µM [inhibitor, partial curve] |
| COc1ccccc1N1CCN(C(=O)CSc2nc(-c3ccco3)cc(C(F)(F)F)n2)CC1 | inconclusive: 20 µM [inhibitor, partial curve, poor fit] and inconclusive: 7.94 µM [inhibitor, partial curve] |
| CCc1nc2ccccc2c(C(=O)OCC(=O)NC2CC2)c1C | inconclusive: 1.12 µM [inhibitor, partial curve] |
| CCCC(=O)Nc1sc2c(c1C(=O)Nc1ccccn1)CCCC2 | inconclusive: 31.6 µM [inhibitor, single point] |
| CCOC(=O)c1c(C)[nH]c(C(=O)NNC(=O)c2ccccc2F)c1C | inconclusive: 3.55 µM [inhibitor, full curve, poor fit] |
| COc1cccc(COc2nc3c(c(=O)n(C)c(=O)n3C)n2C)c1 | inconclusive: 7.94 µM [inhibitor, single point] |
| Cc1c(C(C)NC(=O)c2cc(COc3cccc4cnccc34)on2)cnn1C (centres undefined) | active: 7.08 µM |
| COc1ccc(C)cc1NC(=O)Nc1ccccc1 | active: 3.16 µM |
| N#CNC(=Nc1ccc(Cl)cc1)Oc1ccccc1 | inactive |
| Cc1cc(C(=O)OCC(=O)Nc2ccccc2Cl)c(C)o1 | inactive |
| COc1ccc(-n2cnc3scc(-c4ccc(OC)c(OC)c4)c3c2=O)cc1 | inconclusive: 12.6 µM [inhibitor, single point] |
| O=C(NC(=S)Nc1cccc(-c2ccc(CO)o2)c1)c1cccs1 | inconclusive: 5.01 µM [inhibitor, partial curve] |
| CCOc1cc(/C=C/c2nc3ccccc3s2)ccc1OCC(=O)N1CCOCC1 | inconclusive: 10 µM [inhibitor, partial curve] |
